The list shows a part of the results.
B1: 1005761_1005881_6397_CDS_ENSG00000060237_ENST00000535572|human|control|control (ssRNA)
RNA: GGGAGUUCUACAGUCCGACGAUCCAGCUCUAACUUUAAGUCUUCAUCUUCGAUAUCUGACUCAUUGUCGCUACUCAUGUAAGAGGAGUUAAAUGAAUUACUAAGGCUUUGACUUAGAUUCUGGCUAGGAAGGCUCUUUGAGCUCAACAGAGGAUUGAGCAUCA
B2: chr7:54823571:54823572:-_ENSG00000132432_ENST00000352861|hu_mus|hu_hu_hu_mus_False|58_98 (ssRNA)
RNA: GGGAGUUCUACAGUCCGACGAUCUCCCAUGAUAGCAAAUCCUAUUGCUGUAGCCAUGGCAAUCUUCUGGAAUUCUUUUCUAUCAGGUUUGGUGCAUCUUUUAACCAGCCGAAUUGAGUCCUUUACAAACUGCCGGCUGGGCUCCAACAGAGGAUUGAGCAUCA
B3: chr11:33163239:33163240:-_ENSG00000176102_ENST00000323959|hu_mus|motif|central (ssRNA)
RNA: GGGAGUUCUACAGUCCGACGAUCUCUGCCAGAACUGGGGAACUGGGCAACAAGGCGUUCGUAAGUCUUCCGUGCUUUGUCGGUAGGUUGAUUCUGUGCCUCUCGAAUGAGAAUGCUCCAAGCAUCAAGGUCAUAUGGAUUUUCCAACAGAGGAUUGAGCAUCA
B4: chr11:77376804:77376805:-_ENSG00000048649_ENST00000308488|hu_hu|FALSE|FALSE (ssRNA)
RNA: GGGAGUUCUACAGUCCGACGAUCAAUGAAUUUUAAUAGAAGUCUAAUGGCCAAAGGCCAAAACUACAUUCAAACUCUGCUAAUAUAUCCAGGCAGAUAGGAAAUUCCAACACACACACACACGCACACGCACACACACAAACACAACAGAGGAUUGAGCAUCA
B5: chr2:157388187:157388188:+_ENSMUSG00000067786_ENSMUST00000109526|mus_mus|FALSE|FALSE (ssRNA)
RNA: GGGAGUUCUACAGUCCGACGAUCUUUUGGUGGAGGUGGUCCCUGUCUCCAGGAGCUUACAAUCUAGCUGGGGAGACACUACUAAUGCACACUUAAACCAGUACAAUUAGCGACUACCACAAUAUUGACCACAACUGCUGCGUGCAACAGAGGAUUGAGCAUCA
B6: chr1:121442827:121442828:-_ENSMUSG00000026383_ENSMUST00000052404|mus_mus|FALSE|FALSE (ssRNA)
RNA: GGGAGUUCUACAGUCCGACGAUCAAACAACAAAUGAACAUGAUACCUGCCAAAUGAAAAGACAAGAAGCUUUCUUAGAAACUAUGUUCCCAGGUGUAGUGGCAUAGCCUUUAAUGAAGCACUCAGGAGGCAGAGGCAGGAGGACAACAGAGGAUUGAGCAUCA
B7: chr4:184596322:184596323:+_ENSG00000168538_ENST00000334690|hu_hu|FALSE|FALSE (ssRNA)
RNA: GGGAGUUCUACAGUCCGACGAUCCGCAUUUUGUGUAUCUUGUUUCAACUCACUGAAGAAAGCUAUUUUGAACUGAUGCCUAACAAAUAAAAGCUGGUGUGUUGUUUUAUUCAAAAAUUCUUUAUGAGAUUUCACUCUUCUGAUCAACAGAGGAUUGAGCAUCA
B8: chr7:65705844:65705845:+_ENSG00000169902_ENST00000304842|hu_mus|hu_hu_hu_mus_False|58_78 (ssRNA)
RNA: GGGAGUUCUACAGUCCGACGAUCAAACGGAUCUUUGUUACAUAAAUAAGGUGCCGGCUCCCCAUGCUUAACAAUGAUUUCUAGUAAGAAGGCUUGCAUGGCAGAAUCUAGCACUUCAUCUGUGACACCCGCCUCAUCCAAGCGCAACAGAGGAUUGAGCAUCA
B9: chr4:40680873:40680874:+_ENSMUSG00000028410_ENSMUST00000030118|mus_mus|motif|central (ssRNA)
RNA: GGGAGUUCUACAGUCCGACGAUCAUUCUGAUAUCCAGAUUUAAGCAUGUAAGCAUGUGACUUCAAAACAUACAACAAAUCGGUUCAUAAUUUGCUAUACUACCAACAUUAAAUUGCAGUUACGUUGGAGCCUAAGUCGAAUAGCAACAGAGGAUUGAGCAUCA
B10: chr12:36845622:36845623:-_ENSMUSG00000020547_ENSMUST00000020856|mus_hu|FALSE|FALSE (ssRNA)
RNA: GGGAGUUCUACAGUCCGACGAUCUGCCAUCCAUGCUUUGAAAAGCUUGACAGCAAAUGAGGCCGCAAUGCCUUCUUUGACUAAGCUGUCGGUGAAGAGACUGGUGAGGAUGGUGGCGGGCAGGGUGCCAUUGCCCAGCAGAAUCAACAGAGGAUUGAGCAUCA
B11: 144403379_144403499_1112_CDS_ENSG00000184428_ENST00000329245|human|control|control (ssRNA)
RNA: GGGAGUUCUACAGUCCGACGAUCCACCGGCACUCUGUUGUAGUAGCGGAUGCAGUCCUUCCCCAGGAAGUCAAAUUCCACCACGUGUUGGCAGCCAUCGGCCUCCGGGUGCAGCUGGACGUGCUCCACGCGGAGGGAACAGCACAACAGAGGAUUGAGCAUCA
B12: chr6:75947695:75947696:-_ENSG00000112695_ENST00000509698|hu_hu|FALSE|FALSE (ssRNA)
RNA: GGGAGUUCUACAGUCCGACGAUCCUGAAGUCACUCCUGCUUCUUGGGAAAUGAAGCCACAGCCAGCUCAUAUAUGGCAUAUGCUGUUCCUUCAAACAUUCCAAAGGCCUUACCACCAACUGUAAGAAUCAUGGUGGCUCUAUACAACAGAGGAUUGAGCAUCA
B13: 112583360_112588910_3410_CDS_ENSG00000153107_ENST00000341068|human|control|control (ssRNA)
RNA: GGGAGUUCUACAGUCCGACGAUCUAUUCUGGUUAAAUACUGUGAGGAUUCAUCAGAAACCAAGCUCUCAUCACCAAGUAUGUACAGUGCAAUACUCAAGACUACAAGUCUGCUUCUUUCACAGAUUCCAGGGAGGUAAGGAUACAACAGAGGAUUGAGCAUCA
B14: 31034375_31034495_2417_3pUTR_ENSG00000197183_ENST00000359676|human|control|control (ssRNA)
RNA: GGGAGUUCUACAGUCCGACGAUCACCGGCUGCCAUCUCCCAGCAGUCCGUCCUGUCAAGCAGCUGAGGGCCAGAGCUGGAGGGCUGCAGUGGCUGGUUAGGGACAGGACGCUCUCUGGGUUCCAGCUCCUGGACACCCAGUCUCAACAGAGGAUUGAGCAUCA

The binders below were run against T1, UNK ZnF1-3 (human, UniProt Q9C0B0 31-174) (assay: nsRBNS (natural sequence RNA bind-n-seq); RBNS binding buffer (assumed for nsRBNS): 25 mM Tris pH 7.5, 150 mM KCl, 3 mM MgCl2, 0.01% Triton X-100, 500 ug/ml BSA, 20 U/ml SUPERase-In, 4 C; UNK is unkempt and MSI1 is Musashi-1; names of the RNAs are library labels; protein concentration not given here; high values mean tight binding).
T1 sequence: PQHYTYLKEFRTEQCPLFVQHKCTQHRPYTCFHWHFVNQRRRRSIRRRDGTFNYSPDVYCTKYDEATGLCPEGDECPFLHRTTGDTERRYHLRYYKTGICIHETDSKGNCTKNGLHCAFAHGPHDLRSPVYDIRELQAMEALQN

Binder | binding signal
B1 | 0.79 enrichment R
B2 | 0.765 enrichment R
B3 | 0.662 enrichment R
B4 | 1.93 enrichment R
B5 | 1.2 enrichment R
B6 | 1.12 enrichment R
B7 | 1.11 enrichment R
B8 | 0.445 enrichment R
B9 | 0.477 enrichment R
B10 | 1.01 enrichment R
B11 | 0.759 enrichment R
B12 | 0.807 enrichment R
B13 | 1.34 enrichment R
B14 | 0.77 enrichment R
